Data from publication PMC6451091.
The list shows a part of the results. For part of these data: At the low end of the ranking, values are background and their order means little. For part of these data: The protein was read in a cell extract, so binding may be indirect.

Key:
Details in all cases: 20 mM HEPES pH 7.9, 100 mM NaCl, 1 mM DTT, 0.2 mg/mL BSA, 0.02% Triton X-100, 2% milk, 0.4 mg/mL salmon testes DNA; 1 h; temperature not stated; high values mean tight binding; double strand, one strand shown; sequences stand for … in GCCTAGCAC…GTGCTAGGTCTTGATTCGCTTGACGCTGCTG
[1] = target: PU.1 (IVT) (UniProt P17947); assay: protein-binding microarray (PBM)
[2] = target: T1, FLI1 (endogenous, THP-1 nuclear extract) (UniProt Q01543); assay: nuclear extract protein-binding microarray (nextPBM)
T1 sequence: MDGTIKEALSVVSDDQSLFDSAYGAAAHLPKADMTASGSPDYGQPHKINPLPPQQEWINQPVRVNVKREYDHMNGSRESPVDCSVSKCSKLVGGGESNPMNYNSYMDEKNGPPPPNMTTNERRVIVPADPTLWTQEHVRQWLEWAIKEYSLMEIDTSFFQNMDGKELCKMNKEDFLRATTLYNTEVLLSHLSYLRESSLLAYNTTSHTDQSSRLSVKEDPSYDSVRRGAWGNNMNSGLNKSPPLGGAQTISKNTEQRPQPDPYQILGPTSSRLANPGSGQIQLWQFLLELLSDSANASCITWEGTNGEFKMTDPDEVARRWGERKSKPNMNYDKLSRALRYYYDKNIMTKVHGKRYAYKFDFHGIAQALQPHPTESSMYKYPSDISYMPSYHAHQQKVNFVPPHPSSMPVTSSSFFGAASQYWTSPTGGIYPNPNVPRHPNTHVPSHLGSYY

[3] = test system: PU.1 (endogenous, THP-1 nuclear extract) + IRF8 (endogenous, THP-1 nuclear extract); assay: as above

| Sequence | binding signal [1] [z-score] | binding signal [2] [z-score] | binding signal [3] [z-score] |
| --- | --- | --- | --- |
| GAGGAGAGGAAGTGAAACTT | 4.01 | 3.77 | 47.6 |
| TTGAGGAGGAAGTGAAACTG | 4.48 | 4 | 68.6 |
| GAAAAGAGGAAATGAAACTA | 6.31 | 4.07 | 67.1 |
| CTGCCAGGGAAGTGAAGGCA | 0.913 | 0.568 | -0.0451 |
| TGAGTGGAGAAGTGAAACCT | 1.09 | -0.0974 | 23.5 |
| AGAAGAAGGAAGTGAAAGTG | 4.45 | 2.78 | 34.2 |
| AAAGAAAGGAAATGAAAGTA | 0.624 | 2.23 | 10.4 |
| CTGGCAGGTAACTGAAACTC | 0.163 | -0.327 | 4.78 |
| TAAAGGAGAAACTGAAACCA | 0.576 | -0.121 | 36.2 |
| TGGCAGAAGAAGTGAAACTA | 0.713 | -0.341 | 38.9 |
| AAAAACAGGAAATGAAAGTA | 5.43 | 5.1 | 30 |
| AAAAAAAGGAAATGAAACTG | 3.4 | 2.85 | 36.1 |
| TGGCAGAGGAAGAGAAACTA | 0.937 | 0.722 | 3.61 |
| TTTTTGAGGAACTGAAACTC | 4.66 | 3.05 | 45.5 |
| CTTGTGAGGAAGTGAAACTT | 3.62 | 2.99 | 48.1 |
| AAAAAGAGGAAGAGAAACTA | 5.79 | 2.51 | 34.2 |
| AAGAAAGGGAAGTGAAACTA | 5.26 | 3.14 | 79.1 |
| TAAAGGACGAACTGAAACCA | -0.363 | -0.17 | 14 |
| AAAAGAAGGAAATGAAAGTA | 1.98 | 2.05 | 11.2 |
| TTAAGGAGGAACTGAAACCA | 2.65 | 2.09 | 32.1 |

| Sequence | binding signal [1] [z-score] | binding signal [2] [z-score] | binding signal [3] [z-score] |
| --- | --- | --- | --- |
| CCCAGGAGGAACTGAAACTG | 2.73 | 1.62 | 28.2 |
| TAAAGGAGGAACTTAAACCA | 4.25 | 1.56 | -0.382 |
| TAGCAGAGGAAGTGAAACTA | 3.74 | 3.81 | 60.4 |
| TGAGAGGAGAAGTGTAACCT | 0.923 | 0.0671 | 0.468 |
| AAAAGGAGGAACTGAAACCA | 4.47 | 2.34 | 51.3 |
| TGGCAGAGTAAGTGAAACTA | -0.089 | -0.224 | 27 |
| AGAAAGTGGAAGTGAAACTG | 3.67 | 2.91 | 61 |
| AAGAAGAGGAAGAGAAACTT | 3.2 | 1.69 | 3.84 |
| TGAGAGGAGGAGTGAAACCT | -0.199 | 0.09 | 8.74 |
| CTGCCAGGGAAGTGAAACCA | 1.07 | 1.29 | 34.6 |
| GATTTGAGGAAATGAAACTT | 3.79 | 2.18 | 39.4 |
| TGAAAGCAGAAGTGAAACTG | 4.25 | 2.98 | 65.3 |
| AGATGGAGGAAGTGAAACCA | 3.96 | 3.44 | 56.5 |
| TAAGGGAGGAACTGAAACCA | 1.92 | 1.51 | 19.7 |
| CTGGCAGGGAACTGAAACTC | 0.625 | 0.378 | 11.7 |
| TGAAACAGGAAGTGAAACCC | 6.63 | 5.88 | 61.3 |
| CTGGCAGGGAACTGAAACAC | 0.334 | -0.223 | -0.415 |
| AAAAAGAGGAAGAGAAACTG | 5.82 | 2.81 | 18 |
| TAAAGGAGCAACTGAAACCA | -0.153 | -1.01 | 7.24 |
| CAAATGTGGAAGTGAAACTC | 4.71 | 3.13 | 50.1 |

| Sequence | binding signal [1] [z-score] | binding signal [2] [z-score] | binding signal [3] [z-score] |
| --- | --- | --- | --- |
| GGAAACAGGAAGTGAAACCA | 7.19 | 5.62 | 75 |
| TTAGAGGAGAAGTGAAACCT | 1.39 | 0.686 | 25.1 |
| ATAAAAAGGAAATGAAAGTA | 2.01 | 2.24 | 11 |
| AGGCAGAGGAAGTGAAACTA | 3.35 | 3.52 | 57.6 |
| GTGGTGAGGAACTGAAACTG | 1.8 | 1.17 | 20.1 |
| GAGAAGAGGAACTGAAAGCT | 4.24 | 1.97 | 3.84 |
| CTACCAGGGAAGTGAAAGCA | 1.25 | 0.763 | 4.34 |
| CTGCCAGGGAAGTGATAGCA | 1.15 | 0.603 | -0.272 |
| TGAGAGGAGAAGTGAACCCT | 1.03 | 0.173 | -0.365 |
| TAAAGGAGGAACTGAAACCC | 3.74 | 1.96 | 21.9 |
| CTGGCAGGGAACTGAAAGTC | 0.723 | 0.166 | 3.08 |
| GATAACAGGAACTGAAAGCT | 3.45 | 1.85 | 3.23 |
| AAAAAAAGGAAACGAAAGTA | 2.37 | 2.04 | 44.4 |
| TGAAACAGGAATTGAAACCA | 1.76 | 1.71 | 23.8 |
| TGGCAGAGGAAGTGAAAATA | 3.29 | 2.72 | 2.81 |
| TGGCAGAGGGAGTGAAACTA | -0.14 | -0.245 | 19.2 |
| TTACACAGGAAGTGAAACTA | 2.43 | 4.89 | 58.5 |
| TGAAACAGGAAGAGAAACCA | 2.68 | 2.71 | 5.57 |
| TGCAACAGGAAGTGAAACCA | 4.15 | 5.42 | 56.9 |
| AGAAAAAGGAAATGAAAGTA | 2.35 | 2.45 | 12.3 |
